Reference: patent US20230374090A1 (SURROZEN OPERATING, published 2023)
Blank lines part the entries; values can stand above or below the binder they belong to.

Tests used:
[1] = target: T1, ASGR1 antigen (Homo sapiens (Human), UniProt P07306 62-291, Biotinylated for capture on streptavidin sensors; the site and manner of biotinylation are not stated in the passages seen.); test: ASGR1 binding assay, loading sample bio-ASGR1; Full R^2 0.998
T1 construct: also called biotinylated ASGR1
T1 sequence: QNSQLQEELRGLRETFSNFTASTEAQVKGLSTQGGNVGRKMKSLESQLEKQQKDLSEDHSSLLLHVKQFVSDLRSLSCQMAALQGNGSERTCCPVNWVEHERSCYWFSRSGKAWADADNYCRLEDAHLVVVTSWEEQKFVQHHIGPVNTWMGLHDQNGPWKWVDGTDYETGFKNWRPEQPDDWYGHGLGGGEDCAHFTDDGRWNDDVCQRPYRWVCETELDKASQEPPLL

[2] = target: T1, ASGR1 antigen; test: ASGR1 binding assay, loading sample bio-ASGR1; kdis(1/s); Full R^2 0.998
[3] = target: T1, ASGR1 antigen; test: binding to ASGR1 antigen (Octet binding per paragraph 285/paragraph 287; method not printed on the sheet)
[4] = target: T1, ASGR1 antigen; test: BLI, Octet Red96e, biotinylated ASGR1 on streptavidin sensors, bivalent analyte model; Full R^2 0.998
From the text: (§1) FIGS. 39A-C show binding of various Wnt signal enhancing molecules comprising the indicated combinations of point mutations as compared to the initial αASGR1-RSPO2 Wnt signaling enhancer molecule (NG or “wild type”). FIG. 39A is a table showing kinetic fir parameters from the data in FIGS. 39B and 39C. Data was fit using the bivalent analyte model in the ForteBIO Data Analysis Software. FIGS. 39B-39C provide data from serial dilutions of the various Wnt signal enhancing molecules tested for binding using biotinylated ASGR1 captured on streptavidin sensors using the Octet Red96e.

[5] = target: T1, ASGR1 antigen; test: BLI, Octet Red96e, biotinylated ASGR1 on streptavidin sensors, bivalent analyte model; kdis(1/s); Full R^2 0.998
From the text: as §1

[6] = target: T1, ASGR1 antigen; test: ASGR1 binding assay, loading sample bio-ASGR1; Full R^2 0.9971
[7] = target: T1, ASGR1 antigen; test: ASGR1 binding assay, loading sample bio-ASGR1; kdis(1/s); Full R^2 0.9971
[8] = target: T1, ASGR1 antigen; test: BLI, Octet Red96e, biotinylated ASGR1 on streptavidin sensors, bivalent analyte model; Full R^2 0.9971
From the text: as §1

[9] = target: T1, ASGR1 antigen; test: BLI, Octet Red96e, biotinylated ASGR1 on streptavidin sensors, bivalent analyte model; kdis(1/s); Full R^2 0.9971
From the text: as §1

[10] = target: T1, ASGR1 antigen; test: ASGR1 binding assay, loading sample bio-ASGR1; Full R^2 0.9917
[11] = target: T1, ASGR1 antigen; test: ASGR1 binding assay, loading sample bio-ASGR1; kdis(1/s); Full R^2 0.9917
[12] = target: T1, ASGR1 antigen; test: BLI, Octet Red96e, biotinylated ASGR1 on streptavidin sensors, bivalent analyte model; Full R^2 0.9917
From the text: as §1

[13] = target: T1, ASGR1 antigen; test: BLI, Octet Red96e, biotinylated ASGR1 on streptavidin sensors, bivalent analyte model; kdis(1/s); Full R^2 0.9917
From the text: as §1

[14] = target: T1, ASGR1 antigen; test: ASGR1 binding assay, loading sample bio-ASGR1; Full R^2 0.9983
[15] = target: T1, ASGR1 antigen; test: ASGR1 binding assay, loading sample bio-ASGR1; kdis(1/s); Full R^2 0.9983
[16] = target: T1, ASGR1 antigen; test: BLI, Octet Red96e, biotinylated ASGR1 on streptavidin sensors, bivalent analyte model; Full R^2 0.9983
From the text: as §1

[17] = target: T1, ASGR1 antigen; test: BLI, Octet Red96e, biotinylated ASGR1 on streptavidin sensors, bivalent analyte model; kdis(1/s); Full R^2 0.9983
From the text: as §1

B1: 1R34-EESN/RA (other)
light: SSELTQDPAVSVALGQTVRITCQGESLRSYYASWYQQKPGQAPVLVIYGKSNRPSGIPDRFSGSSSGNTASLTITGAQAEDEADYYCNSLERIGYLSYVFGGGTKLTVLGQPKAAPSVTLFPPSSEELQANKATLVCLISDFYPGAVTVAWKADSSPVKAGVETTTPSKQSNNKYAASSYLSLTPEQWKSHRSYSCQVTHEGSTVEKTVAPTECS
heavy: NPICKGCLSCSKDNGCSRCQQKLFFFLRREGMRQYGECLHSCPSGYYGHRAPDMNRCARCRIENCDSCRSKDACTKCKVGFYLHRGRCFDECPDGFAPLEETMECVEGGGGSGGGGSGGGGS[… about 100 residues …][… about 120 residues …][… human IgG1 Fc with changes …]
notes: IgG1 N297G, RSPO2 F105R/F109A
Kd [1]: 10.9 nM
kon [1]: 365000 M⁻¹ s⁻¹
koff [2]: 0.00396 s⁻¹
Kd [3]: 10.2 nM
koff [3]: 0.00228 s⁻¹
kon [3]: 224000 M⁻¹ s⁻¹
Kd [4]: 10.9 nM
kon [4]: 365000 M⁻¹ s⁻¹
koff [5]: 0.00396 s⁻¹

B3: 1R34-EEAT/RA (other)
light: SSELTQDPAVSVALGQTVRITCQGESLRSYYASWYQQKPGQAPVLVIYGKANRPSGIPDRFSGSSSGNTASLTITGAQAEDEADYYCTSLERIGYLSYVFGGGTKLTVLGQPKAAPSVTLFPPSSEELQANKATLVCLISDFYPGAVTVAWKADSSPVKAGVETTTPSKQSNNKYAASSYLSLTPEQWKSHRSYSCQVTHEGSTVEKTVAPTECS
heavy: NPICKGCLSCSKDNGCSRCQQKLFFFLRREGMRQYGECLHSCPSGYYGHRAPDMNRCARCRIENCDSCRSKDACTKCKVGFYLHRGRCFDECPDGFAPLEETMECVEGGGGSGGGGSGGGGS[… about 100 residues …][… about 120 residues …][… human IgG1 Fc with changes …]
notes: IgG1 N297G, RSPO2 F105R/F109A
Kd [10]: 46.9 nM
kon [10]: 155000 M⁻¹ s⁻¹
koff [11]: 0.00725 s⁻¹
Kd [3]: 26.9 nM
koff [3]: 0.00399 s⁻¹
kon [3]: 148000 M⁻¹ s⁻¹
Kd [12]: 46.9 nM
kon [12]: 155000 M⁻¹ s⁻¹
koff [13]: 0.00725 s⁻¹

Continued by falling Kd [3], values first:

Kd [14]: 12.5 nM
kon [14]: 309000 M⁻¹ s⁻¹
koff [15]: 0.00384 s⁻¹
Kd [3]: 18.3 nM
koff [3]: 0.00319 s⁻¹
kon [3]: 174000 M⁻¹ s⁻¹
Kd [16]: 12.5 nM
kon [16]: 309000 M⁻¹ s⁻¹
koff [17]: 0.00384 s⁻¹
B4: 1R34-EEST/RA (other)
light: SSELTQDPAVSVALGQTVRITCQGESLRSYYASWYQQKPGQAPVLVIYGKSNRPSGIPDRFSGSSSGNTASLTITGAQAEDEADYYCTSLERIGYLSYVFGGGTKLTVLGQPKAAPSVTLFPPSSEELQANKATLVCLISDFYPGAVTVAWKADSSPVKAGVETTTPSKQSNNKYAASSYLSLTPEQWKSHRSYSCQVTHEGSTVEKTVAPTECS
heavy: NPICKGCLSCSKDNGCSRCQQKLFFFLRREGMRQYGECLHSCPSGYYGHRAPDMNRCARCRIENCDSCRSKDACTKCKVGFYLHRGRCFDECPDGFAPLEETMECVEGGGGSGGGGSGGGGS[… about 100 residues …][… about 120 residues …][… human IgG1 Fc with changes …]
notes: Anti-ASGR1 IgG1 (N297G) with RSPO2 F105R/F109A fused to the N-terminus of each heavy chain; the heavy entry is the whole fusion; also called αASGR1-RSPO2-EEST-RA

Kd [6]: 2740 nM
kon [6]: 338000 M⁻¹ s⁻¹
koff [7]: 0.926 s⁻¹
Kd [3]: 17.7 nM
koff [3]: 0.00341 s⁻¹
kon [3]: 193000 M⁻¹ s⁻¹
Kd [8]: 2740 nM
kon [8]: 338000 M⁻¹ s⁻¹
koff [9]: 0.926 s⁻¹
B2: 1R34-EEAN/RA (other)
light: SSELTQDPAVSVALGQTVRITCQGESLRSYYASWYQQKPGQAPVLVIYGKANRPSGIPDRFSGSSSGNTASLTITGAQAEDEADYYCNSLERIGYLSYVFGGGTKLTVLGQPKAAPSVTLFPPSSEELQANKATLVCLISDFYPGAVTVAWKADSSPVKAGVETTTPSKQSNNKYAASSYLSLTPEQWKSHRSYSCQVTHEGSTVEKTVAPTECS
heavy: NPICKGCLSCSKDNGCSRCQQKLFFFLRREGMRQYGECLHSCPSGYYGHRAPDMNRCARCRIENCDSCRSKDACTKCKVGFYLHRGRCFDECPDGFAPLEETMECVEGGGGSGGGGSGGGGS[… about 100 residues …][… about 120 residues …][… human IgG1 Fc with changes …]
notes: IgG1 N297G, RSPO2 F105R/F109A
